Measured values from PubChem BioAssay AID624330 (Southern Research Specialized Biocontainment Screening …, 2012).
Several values for one entry are separate records, joined by “and”; a condition that tells them apart may be missing. Equal values may be shown once. Out of some 340,000 compounds screened, about 2,100 (0.62%) were called active. Inconclusive results, whose numbers are uncertain, are shown with a selection of clear calls.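 How the source made its calls: active means first-screen hits whose inhibition reached a set limit at any dose in the follow-up dose series; inconclusive means inhibition above the set first-screen limit but never retested; inactive means the rest.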

Target: Rac GTPase-activating protein 1 (Homo sapiens) (UniProt Q9H0H5)
Sequence of UniProt Q9H0H5 (Q9H0H5 whole entry, looked up): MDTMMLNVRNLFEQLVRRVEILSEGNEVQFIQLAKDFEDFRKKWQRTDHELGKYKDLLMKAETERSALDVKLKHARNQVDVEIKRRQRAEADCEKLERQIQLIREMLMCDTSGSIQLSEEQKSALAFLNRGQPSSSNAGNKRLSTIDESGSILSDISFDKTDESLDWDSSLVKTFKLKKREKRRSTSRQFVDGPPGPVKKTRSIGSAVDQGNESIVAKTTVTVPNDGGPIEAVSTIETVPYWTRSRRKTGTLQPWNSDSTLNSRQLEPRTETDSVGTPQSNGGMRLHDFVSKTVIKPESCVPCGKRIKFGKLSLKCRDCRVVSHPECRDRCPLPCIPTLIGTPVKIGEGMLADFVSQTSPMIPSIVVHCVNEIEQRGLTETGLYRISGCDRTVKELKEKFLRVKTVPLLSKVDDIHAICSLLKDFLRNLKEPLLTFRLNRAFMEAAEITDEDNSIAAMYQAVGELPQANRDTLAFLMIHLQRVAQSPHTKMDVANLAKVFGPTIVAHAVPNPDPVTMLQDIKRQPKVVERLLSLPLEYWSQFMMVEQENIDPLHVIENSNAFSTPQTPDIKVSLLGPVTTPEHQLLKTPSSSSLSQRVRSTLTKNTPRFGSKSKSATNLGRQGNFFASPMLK
Test: blockers of MgcRacGAP-driven Rac1 GTP hydrolysis – biochemical, ADP Hunter fluorescence, primary and confirmatory, confirmation (AID 624330);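 further: fluorescence reports GDP produced by GAP-driven GTP hydrolysis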
Conditions: MgcRacGAP-stimulated Rac1 GTP hydrolysis, at 30 µM, active compounds read high, GST-tagged Rac1 F28L mutant substrate

| Structure (SMILES) | inhibition |
| --- | --- |
| Cc1ccc(NC(=O)CC2SC(=Nc3ccc(O)cc3)NC2=O)cc1 (centres undefined) | inconclusive: 32.8% |
| COc1ccc(/C=N/NC(=O)C(C)n2nnc3ccccc32)cc1OC (centres undefined) | inactive: 8.77% |
| O=C(CN1C(=O)/C(=C\c2ccco2)SC1=S)Nc1ccc(O)cc1C(=O)O | inconclusive: 57.1% |
| COc1ccc(N(CC(=O)Nc2ccc3c(c2)OCCO3)S(=O)(=O)c2cccnc2)cc1 | inactive: -11.8% |
| O=c1c2ccccc2ncn1-c1cccc(Cl)c1 | inactive: 5.62% |
| CCOC(=O)c1c(N)sc2c(NC(C)=O)cccc12 | inconclusive: 75.3% |
| CCn1ncc(CN2CCN(C(=O)Nc3ccccc3C(=O)OC)CC2)c1C | inactive: 6.62% |
| Nc1ccc(OCc2ccccc2)cc1 | inconclusive: 69.2% |
| COc1ccc(N2CCC(CNC(=S)Nc3cc(C)ccc3C)C2)cc1 (centres undefined) | inconclusive: 33.2% |
| CCOc1ccc(OCC)c(NC(=O)CN2CCN(CC(=O)NC(C)C)CC2)c1 | inconclusive: 31.9% |
| Cn1c(-c2ccc3c(c2)OCO3)cnc1NCc1cccc(Cl)c1 | inconclusive: 32.5% |
| COc1ccc(-c2csc(Nc3ccc(O)cc3)n2)cc1 | inconclusive: 63.8% |
| CC(C(=O)O)N1C(=O)/C(=C/C=C/c2ccco2)SC1=S (centres undefined) | inconclusive: 76.3% |
| COc1ccc2[nH]c3c(=O)n(Cc4ccc(C(=O)N5CCCC5)cc4)c(=S)[nH]c3c2c1 | inactive: 4.08% |
| O=C(O)C1Nc2c(C(=O)N3CCOCC3)cccc2C2C=CCC12 (centres undefined) | inconclusive: 41.9% |
| N#C/C(=C\c1ccc(O)c(O)c1)C(=O)NCc1ccccc1 | inconclusive: 80.3% |
| CCN(CC)c1ccc(NC(=O)CCNS(=O)(=O)c2ccc3c(c2)CCC(=O)N3)c(C)c1 | inconclusive: 52.5% |
| C#CCOCCOCCOCCNc1nc(N2CCN(C(=O)C([C@@H](C)O)n3cc([C@@H](N)CCCCN)nn3)CC2)nc(N2CCN(C(=O)[C@H](CCCCN)n3cc([C@@H](N)[C@H](C)CC)nn3)CC2)n1 (some centres undefined) | inconclusive: 31.9% |
| CCOC(=O)C1CCCN(CC(=O)c2ccc(F)cc2)C1 (centres undefined) | inconclusive: 33.1% |
| COc1ccc(NC2CCCN(C(=O)COc3ccc(C)cc3)C2)cc1 (centres undefined) | inconclusive: 71.6% |
| Oc1ccc(-c2cn3ccccc3n2)cc1O | inconclusive: 98.7% |
| O=C(/C=C/c1ccc(O)c(O)c1)O[C@@H]1C[C@](O)(C(=O)O)C[C@@H](O)[C@H]1O | inconclusive: 56.8% and inconclusive: 46.7% |
| O=C(CNCC1CCCO1)NCc1ccco1 (centres undefined) | inconclusive: 32% |
| COc1cc(/C=C2\CC/C(=C\c3cc(OC)c(O)c(OC)c3)C2=O)cc(OC)c1O | inconclusive: 52.1% |

| Structure (SMILES) | inhibition |
| --- | --- |
| Cc1cc(-c2ccc3ccccc3c2)n2ncnc2n1 | inactive: -7.09% |
| O=C(NCc1ccco1)C1CC(=O)N(c2ccc(O)cc2)C1 (centres undefined) | inconclusive: 63.5% |
| COC(=O)c1cccc(C(=O)N2CCCC(Nc3ccc4c(c3)OCCO4)C2)c1 (centres undefined) | inactive: 29.2% |
| C/C(=N/NC(N)=S)c1cc2ccc(O)cc2oc1=O | inconclusive: 36.9% |
| O=C(O)COc1ccc2nsnc2c1Cl | inactive: 6.84% |
| CCOc1cc(CNc2ccc(N3CCCC3)cc2)cc(Cl)c1OC | inconclusive: 39.8% |
| COc1cc(/C=N/NC(=O)Cn2cnc3c2c(=O)n(C)c(=O)n3C)ccc1O | inconclusive: 59.8% |
| CCc1cc(=S)n2c([nH]c3ccccc32)c1C#N | inconclusive: 32.7% |
| CCOc1cc(/C=C2/C(=O)NN(c3cccc(Cl)c3)C2=O)ccc1O | inconclusive: 33.6% |
| COc1cc(/C=C2\SC(=S)N(NC(=O)c3cccnc3)C2=O)ccc1O | inconclusive: 52.4% |
| CC1CCCCN1CC(=O)NC(c1ccccc1)c1ccccc1 (centres undefined) | inconclusive: 32.6% |
| COc1ccc(CN2CCN(C(=O)c3cccs3)CC2)c(OC)c1OC | inconclusive: 34.5% |
| COC(=O)c1c(N)sc(Cc2ccccc2)c1C | inactive: 7.62% |
| COC1=C/C(=C/c2c(N)n3nc(-c4ccc(C)cc4)sc3nc2=O)C=CC1=O | inconclusive: 32.7% |
| CCOc1ccc(OCCCCN(C)C)cc1 | inconclusive: 39% |
| C/C(CC(=O)Nc1ccc([N+](=O)[O-])cc1)=N\NC(=O)c1ccccc1O | inactive: 3.2% |
| COc1cccc(CN2CCN(Cc3cccc(Br)c3)CC2)c1OC | inconclusive: 35.8% |
| O=S(=O)(c1ccc(NC(=S)N/N=C/c2ccc(O)c(O)c2)cc1)N1CCOCC1 | inconclusive: 40.7% |
| C=CCn1c(SCC(=O)NC2CC2)nc2sc(CC)cc2c1=O | inactive: 2.06% |
| COc1ccccc1NC(=O)c1ccc[n+]([O-])c1 | inactive: 4.42% |
| O=C1CC(c2ccccc2)CC(O)=C1C=Nc1ccc(Cl)cc1 (centres undefined) | inactive: 2.18% |
| CN=c1scc(C)n1/N=C/c1ccc(O)c(O)c1O | inactive: -36.1% |
| O=C(NCc1cccnc1)c1ccc([N+](=O)[O-])cc1 | inactive: 6.96% |
| NC(=O)CC1Nc2cccc3cccc(c23)NC1=O (centres undefined) | inconclusive: 41.2% |

| Structure (SMILES) | inhibition |
| --- | --- |
| O=C1/C(=C/c2ccc(O)c(O)c2)SC(=S)N1Nc1ccccc1 | inconclusive: 52.2% |
| CC(=O)Nc1ccccc1O | inconclusive: 87.7% |
| CN=C1S/C(=C\c2ccc(Cl)cc2)C(=O)N1C | inactive: 3.04% |
| O=C(O)c1ccc(-c2ccc(/C=C3\NC(=O)N(Cc4ccc(Cl)cc4)C3=O)o2)cc1Cl | inconclusive: 34.3% |
| C[C@@H]1CN(S(=O)C(C)(C)C)[C@@H](CCO)/C1=C\CCO (some centres undefined) | inactive: 8.46% |
| S=c1[nH]nc(-c2cccnc2)n1/N=C/C=C/c1ccccc1 | inactive: 5.39% |
| COc1ccc(OC)c(Nc2nc(=O)c3cccnc3s2)c1 | inconclusive: 35.1% |
| Cc1cc(SCC(=O)N/N=C/c2ccc(O)c(O)c2)nc2ccccc12 | inconclusive: 97.1% |
| COc1cccc(OC)c1OCCCN1CCC(Cc2ccccc2)CC1 | inactive: 28% |
| COc1cc2c(CCNC(C)=O)c[nH]c2cc1Cl | inactive: 7.18% |
| CCn1c(N)c(C(=O)NC)sc1=S | inconclusive: 32.3% |
| Cc1sc2ccccc2[n+]1CC(=O)O | inconclusive: 40.8% |
| COc1cccc(CNc2nn[nH]n2)c1OC | inactive: 3.59% |
| Cc1ccc(N=Cc2ccc(O)cc2O)cc1F | inactive: 2.37% |
| COc1ccc(/C=C/CN2CCC(Oc3ccc(C(=O)N4CCCCC4)cc3)CC2)cc1 | inactive: 7.82% |
| N#CC1C(=O)c2ccccc2C1c1ccccc1 (centres undefined) | inconclusive: 34.2% |
| O=C(CNCc1ccncc1)Nc1cc(S(=O)(=O)N2CCCCC2)ccc1Cl | inconclusive: 35.1% |
| COc1cc(/C=N/NC(=O)C(=O)N2CCCCCC2)ccc1O | inconclusive: 64.5% |
| CCOC(=O)c1[nH]c2ccc(C)cc2c1N=C(C)N(C)C | inactive: 9.84% |
| CC1=CC(=Nc2c(C)n(C)n(-c3ccccc3)c2=O)C=C(C)C1=O | inactive: -4.18% |
| S=C1Cc2ccccc2N1 | inconclusive: 37.6% |
| O=C(O)c1cc([N+](=O)[O-])cc([N+](=O)[O-])c1N1CCN(c2cccc(C(F)(F)F)c2)CC1 | inactive: -6.28% |
| COc1cc(/C=C2\OC(=O)c3c(OC)cccc32)ccc1O | inconclusive: 51% |
| CCN(CC)c1ccc(NC(=O)OC)cc1 | inconclusive: 45.2% |

| Structure (SMILES) | inhibition |
| --- | --- |
| COCCCNC(=S)N/N=C/c1ccc(O)cc1 | inconclusive: 77.5% |
| O=C(CNC(=O)c1ccco1)N/N=C/c1ccc(O)c([N+](=O)[O-])c1 | inactive: 1.55% |
| CC(=O)Nc1ccc(OC(=O)c2ccc(Cl)cc2)cc1 | inactive: -3.42% |
| COc1cc(/C=C/C(=O)OCC(=O)Nc2ccc(S(N)(=O)=O)cc2)ccc1O | inconclusive: 58.1% |
| COc1ccc(CN2CCN(c3ccccc3OC)CC2)cc1OC | inconclusive: 33.6% |
| CSc1ccc2c(c1)N(CCC1CCCCN1C)c1ccccc1S2 (centres undefined) | inconclusive: 54.4% |
| CCN1CCN(c2ccc(NC(=O)Cc3ccccc3)cc2)CC1 | inactive: 6.87% |
| Cn1c(=O)n(Cc2ccccc2Cl)c(=O)c2c1[nH]c(=S)n2C | inconclusive: 97.7% |
| CCCCNC(=O)C1CCN(Cc2ccc(OCc3ccccc3)cc2)CC1 | inconclusive: 34.8% |
| O=NC1=C(c2c(O)[nH]c3ccccc23)CCCC1 | inactive: 5.2% |
| O=C(c1ccc(Cl)c(Cl)c1)c1cc(-c2ccccn2)c(N2CCOCC2)s1 | inactive: 6.1% |
| Cc1ccc(S(=O)(=O)N2CCCCC2)cc1C(=O)N(C)CCOc1ccccc1 | inactive: 8.29% |
| CCc1cc(C(=O)N/N=C/c2ccc(O)cc2O)c2ccccc2n1 | inconclusive: 50.3% |
| Brc1ccccc1C1Nc2cccc3cccc(c23)N1 | inconclusive: 35.2% |
| N#C/C(=C\c1ccc(O)c(O)c1)S(=O)(=O)c1ccccc1 | inconclusive: 43.4% |
| COc1cccc(CN2CCN(S(=O)(=O)c3ccc(NC(C)=O)cc3)CC2)c1OC | inconclusive: 33.4% |
| Cn1c(CNc2ccc(O)cc2)nc2ccccc21 | inconclusive: 88.1% |
| CCCc1nn2c(=O)cc(CSCC(=O)Nc3ccc(OC)cc3)nc2s1 | inactive: 1.76% |
| CC(CCc1ccccc1)NC(=O)CN1CCN(c2ccc(O)cc2)CC1 (centres undefined) | inconclusive: 35.2% |
| COc1cccc(CN2CCSCC2)c1 | inactive: 16.8% |
| O=C(O)C1CCCCC1C(=O)Nc1ccc(S(=O)(=O)N2CCCC2)cc1 (centres undefined) | inactive: 6.7% |
| Oc1ccc(/C=N/NC(=S)Nc2cccnc2)cc1O | inconclusive: 136% |
